Laboratory results from the antibiotic and cytotoxicity screens of Wong et al. (2023).
Some of the results follow.

Each compound was assayed on HSkMC (human skeletal muscle cells) (assay: cytotoxicity call (relative viability < 0.9)). Conditions: 10 µM.

`C[C@@H]1CN([C@@H](C)CO)S(=O)(=O)c2ccc(C#CCC3CCCC3)cc2O[C@@H]1CN(C)C(=O)c1cnccn1` was tested. Which cytotoxicity call did it give?
Its cytotoxicity call is “inactive”.

How did the cytotoxicity call turn out when `C[C@@H]1CCCCO[C@H](CN(C)C(=O)Nc2ccccc2)[C@@H](C)CN([C@@H](C)CO)C(=O)c2cc(NC(=O)CCC(F)(F)F)ccc2O1` was run?
The cytotoxicity call was “inactive”.

With `Cc1noc(C)c1S(=O)(=O)Nc1ccc2c(c1)C(=O)N([C@H](C)CO)C[C@@H](C)[C@@H](CN(C)C(=O)Nc1ccccc1)OCCCC[C@@H](C)O2` as the compound, how does the cytotoxicity call read?
Its cytotoxicity call is “inactive”.

Which cytotoxicity call does the source give for `C[C@H](CO)N1C[C@H](C)[C@H](CN(C)C(=O)Nc2ccc(C(F)(F)F)cc2)Oc2ccc(NC(=O)Nc3ccc4c(c3)OCO4)cc2C1=O` here?
The cytotoxicity call was “inactive”.

How did the cytotoxicity call turn out when `OC[C@@H](O)[C@@H](O[C@@H]1O[C@H](CO)[C@H](O)[C@H](O)[C@H]1O)[C@H](O)[C@@H](O)CO` was run?
Its cytotoxicity call is “inactive”.

How did the cytotoxicity call turn out when `Cc1ccc(S[C@H](C)C(=O)c2ccc(C)c(Cl)c2)cc1` was run?
The cytotoxicity call was “inactive”.

Which cytotoxicity call does the source give for `C[C@@H]1CCCCO[C@@H](CN(C)Cc2ccncc2)[C@H](C)CN([C@@H](C)CO)C(=O)c2cc(NC(=O)NC3CCCCC3)ccc2O1` here?
The cytotoxicity call was “inactive”.

With `C[C@@H]1CN([C@H](C)CO)C(=O)Cc2cc(NC(=O)Cc3ccccc3)ccc2O[C@@H]1CN(C)S(=O)(=O)c1ccccc1` as the compound, how does the cytotoxicity call read?
Its cytotoxicity call is “inactive”.

With `COc1ccc(S(=O)(=O)Nc2ccc3c(c2)C(=O)N([C@H](C)CO)C[C@H](C)[C@H](CN(C)C(=O)NC2CCCCC2)OCCCC[C@H](C)O3)cc1` as the compound, how does the cytotoxicity call read?
Its cytotoxicity call is “inactive”.

Which cytotoxicity call does the source give for `COc1ccc(-c2cnc3c(c2)C(=O)N([C@H](C)CO)C[C@H](C)[C@@H](CN(C)C(=O)Cc2ccccn2)O3)cc1` here?
Its cytotoxicity call is “inactive”.

For `C[C@H](CO)N1C[C@H](C)[C@@H](CN(C)Cc2ccc(Cl)c(Cl)c2)Oc2ccc(NS(=O)(=O)c3ccc(Cl)cc3)cc2C1=O`, which cytotoxicity call is on record?
Its cytotoxicity call is “active”.

For `C[C@@H]1CN([C@H](C)CO)C(=O)c2cc(NC(=O)Nc3ccccc3)ccc2O[C@@H](C)CCCCO[C@H]1CN(C)S(=O)(=O)c1ccccc1`, which cytotoxicity call is on record?
The cytotoxicity call was “inactive”.

With `Cc1ccc(S(=O)(=O)N2C[C@@H](O)COC[C@H]3O[C@H](CC(=O)NCc4ccc(Cl)cc4)CC[C@@H]32)cc1` as the compound, how does the cytotoxicity call read?
The cytotoxicity call was “inactive”.

With `O=C(C[C@H]1C[C@H]2c3cc(NC(=O)C4CCOCC4)ccc3O[C@H]2[C@@H](CO)O1)NCc1cc(F)ccc1F` as the compound, how does the cytotoxicity call read?
Its cytotoxicity call is “inactive”.

Which cytotoxicity call does the source give for `c1ccc2cc3nc4c(ccc5ccccc54)nc3cc2c1` here?
The cytotoxicity call was “inactive”.

With `CC1(C)OC2CC3C4CCC5=CC(=O)C=CC5(C)C4C(O)CC3(C)C2(C(=O)CO)O1` (stereo not given) as the compound, how does the cytotoxicity call read?
The cytotoxicity call was “inactive”.

For `NC[C@H](c1cccs1)N1CCCCCC1`, which cytotoxicity call is on record?
Its cytotoxicity call is “inactive”.

With `CC(C)NC(=O)N(C)C[C@H]1OCCCC[C@H](C)Oc2ccc(NS(C)(=O)=O)cc2C(=O)N([C@@H](C)CO)C[C@@H]1C` as the compound, how does the cytotoxicity call read?
Its cytotoxicity call is “inactive”.

How did the cytotoxicity call turn out when `C[C@@H]1CCCCO[C@@H](CN(C)CC2CCCCC2)[C@@H](C)CN([C@@H](C)CO)C(=O)c2cc(NS(=O)(=O)c3ccc(Cl)cc3)ccc2O1` was run?
The cytotoxicity call was “inactive”.

With `COc1ccc(S(=O)(=O)Nc2ccc3c(c2)C(=O)N([C@H](C)CO)C[C@H](C)[C@H](CN(C)Cc2ccc(C(F)(F)F)cc2)OCCCC[C@H](C)O3)cc1` as the compound, how does the cytotoxicity call read?
Its cytotoxicity call is “active”.

With `C[C@@H]1CCCCO[C@@H](CN(C)Cc2ccc(C(=O)Nc3ccccc3N)cc2)[C@@H](C)CN([C@H](C)CO)C(=O)c2cc(NC(=O)c3ccccc3)ccc2O1` as the compound, how does the cytotoxicity call read?
The cytotoxicity call was “inactive”.

With `C[C@H]1CN([C@@H](C)CO)C(=O)CCCn2cc(nn2)CO[C@H]1CN(C)S(=O)(=O)c1ccc(-c2ccccc2)cc1` as the compound, how does the cytotoxicity call read?
The cytotoxicity call was “inactive”.

Which cytotoxicity call does the source give for `COc1ccc(C#Cc2ccc3c(c2)O[C@H](CN(C)S(=O)(=O)c2ccccc2F)[C@H](C)CN([C@@H](C)CO)S3(=O)=O)cc1` here?
The cytotoxicity call was “inactive”.

With `C[C@@H]1CN([C@@H](C)CO)C(=O)c2cc(C3=CCCCC3)cnc2O[C@@H]1CN(C)C(=O)CN1CCOCC1` as the compound, how does the cytotoxicity call read?
The cytotoxicity call was “inactive”.

With `COc1ccc(NC(=O)N(C)C[C@H]2OCCCC[C@H](C)Oc3ccc(NC(=O)Nc4ccc5c(c4)OCO5)cc3C(=O)N([C@@H](C)CO)C[C@H]2C)cc1` as the compound, how does the cytotoxicity call read?
The cytotoxicity call was “inactive”.

For `CN1CCCN=C1COC(=O)C(O)(c1ccccc1)C1CCCCC1.Cl` (stereo not given), which cytotoxicity call is on record?
The cytotoxicity call was “inactive”.

For `C[C@@H]1CN([C@@H](C)CO)C(=O)c2cc(NC(=O)c3ccccc3)ccc2O[C@@H](C)CCCCO[C@@H]1CN(C)Cc1ccc(C(F)(F)F)cc1`, which cytotoxicity call is on record?
The cytotoxicity call was “inactive”.

For `CCC(=O)NCc1nc(C)cc(N(C)C)n1`, which cytotoxicity call is on record?
The cytotoxicity call was “inactive”.

With `CN1CCc2nc(C(=O)NC3CC(C(=O)N(C)C)CCC3NC(=O)C(=O)Nc3ccc(Cl)cn3)sc2C1.Cc1ccc(S(=O)(=O)O)cc1.O` (stereo not given) as the compound, how does the cytotoxicity call read?
Its cytotoxicity call is “inactive”.

With `COc1ccc(S(=O)(=O)Nc2cccc3c2O[C@@H](CN(C)Cc2ccc(-c4ccccc4)cc2)[C@H](C)CN([C@H](C)CO)C3=O)cc1` as the compound, how does the cytotoxicity call read?
The cytotoxicity call was “inactive”.

`C[C@H](CO)N1C[C@H](C)[C@@H](CN(C)Cc2ccc(C(F)(F)F)cc2)OCCCC[C@H](C)Oc2ccc(NC(=O)c3ccccc3)cc2C1=O` was tested. Which cytotoxicity call did it give?
Its cytotoxicity call is “inactive”.

Which cytotoxicity call does the source give for `C[C@H]1CN([C@@H](C)CO)C(=O)c2cc(NC(=O)Nc3ccc(C(F)(F)F)cc3)ccc2O[C@@H]1CN(C)Cc1ccncc1` here?
Its cytotoxicity call is “inactive”.

How did the cytotoxicity call turn out when `C[C@@H]1CN([C@H](C)CO)C(=O)Cc2cc(NC(=O)C3CC3)ccc2O[C@@H]1CN(C)S(=O)(=O)c1cn(C)cn1` was run?
The cytotoxicity call was “inactive”.

How did the cytotoxicity call turn out when `C#CCN1[C@H](/C=C/C2CC2)[C@H](CCn2cc(-c3ccc(C(=O)NO)s3)nn2)OC(=O)[C@@H]1Cc1ccccc1` was run?
Its cytotoxicity call is “inactive”.

`C[C@H](CO)N1C[C@H](C)[C@H](CN(C)CC2CCCCC2)Oc2c(NC(=O)Nc3cccc4ccccc34)cccc2C1=O` was tested. Which cytotoxicity call did it give?
Its cytotoxicity call is “inactive”.

For `Cc1ccc(S(=O)(=O)Nc2ccc3c(c2)C(=O)N([C@H](C)CO)C[C@@H](C)[C@@H](CN(C)S(=O)(=O)c2ccc(F)cc2)OCCCC[C@@H](C)O3)cc1`, which cytotoxicity call is on record?
Its cytotoxicity call is “inactive”.

Which cytotoxicity call does the source give for `COCCOC(=O)N1C(=O)[C@@]2(c3cc(C#CCC(C(=O)OC)C(=O)OC)ccc31)[C@H](C(=O)N1CCCCCCC1)[C@H]1C(=O)O[C@H](c3ccccc3)[C@H](c3ccccc3)N1[C@@H]2c1ccc(OCCO)cc1` here?
The cytotoxicity call was “inactive”.

`NNC(=O)CNc1ccc2c(c1)OCO2` was tested. Which cytotoxicity call did it give?
The cytotoxicity call was “inactive”.

How did the cytotoxicity call turn out when `C[C@@H]1CCCCO[C@@H](CN(C)S(=O)(=O)c2ccc(F)cc2)[C@@H](C)CN([C@@H](C)CO)C(=O)c2cc(NC(=O)CCC(F)(F)F)ccc2O1` was run?
The cytotoxicity call was “inactive”.

With `C[C@H](CO)N1C[C@H](C)[C@H](CN(C)S(=O)(=O)c2cn(C)cn2)Oc2cc(C3=CCCC3)ccc2S1(=O)=O` as the compound, how does the cytotoxicity call read?
The cytotoxicity call was “inactive”.
